Data as given in PMC12668310, “High‐Throughput Synthesis and Screening of a Cyanimide Library Identifies Selective Inhibitors of ISG15‐Specific Protease mUSP18” (Angewandte Chemie (International Ed. in English), 2025).

Key:
mUSP18 [1] = target: T1, mUSP18 (Mus musculus, UniProt Q9WTV6); experiment: IC50 determination, fluorogenic ISG15CT-Rho-morpholine activity assay; format: biochemical, murine
T1 construct: (46-368); His-tag (N); made in house
T1 sequence (Q9WTV6 46-368): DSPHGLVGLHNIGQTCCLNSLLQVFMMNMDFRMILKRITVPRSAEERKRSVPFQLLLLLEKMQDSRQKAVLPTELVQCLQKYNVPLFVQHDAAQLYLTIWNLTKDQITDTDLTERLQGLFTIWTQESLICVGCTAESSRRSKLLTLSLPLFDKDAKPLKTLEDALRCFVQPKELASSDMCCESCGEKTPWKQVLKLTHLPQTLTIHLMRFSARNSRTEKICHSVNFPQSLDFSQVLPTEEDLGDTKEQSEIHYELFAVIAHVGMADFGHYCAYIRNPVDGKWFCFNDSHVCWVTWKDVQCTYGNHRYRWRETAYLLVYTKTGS

12 Ub(‐like) proteases = experiment: High-throughput screening, whole panel of twelve enzymes; format: biochemical; details: crude mixture, 1.25 µM; enzymes other than mUSP18
Description: Since the in‐plate synthesis was conducted in 1536‐well Echo plates, the compounds could readily be transferred from these plates into 1536‐well assay plates using acoustic liquid dispensing (Figure 2a) and subjected to HTS. We screened the whole 7536 compound library against a panel of twelve enzymes, including three DUBs from the UCH family, two DUBs from the OTU family, five DUBs from the USP family, plus ISG15 protease USP18, and SUMO protease SENP1. Each compound was tested at a single dose of 1.25 µM, assuming full conversion (10 mM in DMSO of the formed products) during the in‐plate synthesis, using the fluorogenic assay described above. […] The compounds are sorted by the amine building blocks (BB1‐16), and within each BB, sorted by carboxylic acid (CA1‐471), thereby providing a comprehensive and systematic overview of the overall inhibition by each BB and CA combination. Some interesting patterns can be obtained from this map. […] Indeed, BB10 is the privileged scaffold for UCHL1 as it originates from UCHL1 inhibitor 5 (Figure 1). […]
(§1) The percentage inhibition was calculated for each well using the […]
(§2) Where FIx is the fluorescence intensity of each well, FIpos is the average fluorescence intensity of the positive (NEM) control wells, and FIneg is the average fluorescence intensity of the negative (DMSO) control wells.

[2] = test system: cellular ISGylation in SUP-T1 cells (human USP18); experiment: ISGylation assay in human IFN-β-stimulated SUP-T1 cells; format: cell-based; details: 4 h treatment
mUSP18/ISG15 interaction = target: T2, mUSP18/ISG15 interaction (Mus musculus, UniProt Q9WTV6); experiment: NanoBRET assay, mUSP18/ISG15 interaction in HEK293T cells
T2 sequence (Q9WTV6 1-368): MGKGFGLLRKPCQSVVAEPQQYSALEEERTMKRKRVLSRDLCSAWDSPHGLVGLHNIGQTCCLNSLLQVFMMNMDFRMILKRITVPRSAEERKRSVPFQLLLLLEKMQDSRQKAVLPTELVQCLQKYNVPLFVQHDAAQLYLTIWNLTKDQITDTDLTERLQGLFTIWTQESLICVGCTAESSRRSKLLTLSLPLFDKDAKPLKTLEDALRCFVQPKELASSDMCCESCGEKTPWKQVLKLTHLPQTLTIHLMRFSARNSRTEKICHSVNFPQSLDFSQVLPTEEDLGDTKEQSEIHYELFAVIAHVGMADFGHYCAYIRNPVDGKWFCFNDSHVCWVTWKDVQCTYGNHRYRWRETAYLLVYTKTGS

papain = target: T3, papain (Carica papaya, UniProt P00784); experiment: IC50 determination, Z-FR-AMC substrate; format: biochemical; details: 30 min pre-incubation
T3 construct: papaya latex; purchased Sigma Aldrich P3125; host or cells: papaya latex
T3 sequence (P00784 134-345): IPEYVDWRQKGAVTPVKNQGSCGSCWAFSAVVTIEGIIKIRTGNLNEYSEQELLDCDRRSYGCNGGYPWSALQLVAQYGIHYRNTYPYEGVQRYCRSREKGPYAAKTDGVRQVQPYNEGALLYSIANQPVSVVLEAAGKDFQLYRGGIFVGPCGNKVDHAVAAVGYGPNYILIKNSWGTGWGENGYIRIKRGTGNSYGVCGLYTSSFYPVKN

human USP18 = target: T4, human USP18 (Homo sapiens, UniProt Q9UMW8); experiment: IC50 determination, ISG15ct-RhoMP substrate; format: biochemical; details: 30 min pre-incubation
T4 construct: (16-372); His6-GST; made in house
T4 sequence (Q9UMW8 16-372): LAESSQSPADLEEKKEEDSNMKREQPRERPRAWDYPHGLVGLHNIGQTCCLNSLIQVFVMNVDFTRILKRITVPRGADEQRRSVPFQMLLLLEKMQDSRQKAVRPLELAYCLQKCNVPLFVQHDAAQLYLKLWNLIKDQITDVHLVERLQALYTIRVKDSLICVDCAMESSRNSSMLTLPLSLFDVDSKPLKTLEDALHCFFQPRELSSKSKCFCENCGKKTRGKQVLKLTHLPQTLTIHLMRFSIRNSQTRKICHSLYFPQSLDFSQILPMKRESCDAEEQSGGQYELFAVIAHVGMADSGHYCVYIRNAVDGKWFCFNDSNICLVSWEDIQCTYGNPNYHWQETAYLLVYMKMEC

[3] = test system: 41 different recombinant DUBs; experiment: DUBprofiler selectivity screen (Ubiquigent), Ub-Rho activity assay; format: biochemical; details: 250 nM compound, n = 1
Description: (§3) Data for mUSP18 inhibition was generated separately in an ISG15CT‐Rho activity assay using the same buffer, compound concentration, and 30 min incubation time.
(§4) To gain further insights into the selectivity of BB07CA902 for mUSP18, the compound (250 nM concentration) was tested on a DUB panel comprising 41 different recombinant DUBs, including 22 from the structurally related USP family.
High-throughput screening
The screens were performed at room temperature in “flat bottom, non-treated, black […]
µM. The compounds (10 nL each) were transferred from the 1 mM daughter plates to the […]
Four wells containing DMSO
(10 nL) and four wells containing NEM (10 mM final concentration) were used in each plate […]
solution (1.33x final concentration) was added to each well, followed by incubation for 30 min.
Next, 2 µL of a substrate solution (4x final concentration) was added to each well (Ub-RhoMP[2]
After 1h or 2h incubation the
as §1, §2
Selectivity determination (Ubiquigent)
DUBprofiler assays were performed by Ubiquigent. BB07CA902 was tested at 0.25 µM using 100 nM ubiquitin-rhodamine110 as substrate. […]

mUSP18 [4] = target: T1, mUSP18; experiment: ISG15CT-Rho activity assay at single concentration (DUB panel conditions); format: biochemical, murine; details: 250 nM compound, 30 min incubation
Description: as §3, §4

HEK293T cells = experiment: CellTiter-Glo 2.0 cell viability assay; format: cell-based, human
Description: interaction of p53 with MDM2, and cell viability assay. A) BRET ratio of p53/MDM2
B) Cell viability assay with inhibitor
BB07CA902 in HEK293T cells.
with three technical replicates.
for donor saturation assays.
acceptor plasmid (HaloTag fusion vector).
was added where necessary.
compound disruption assays.
Equivalent volumes of DMSO were
To assess potential nonspecific
(RLU) normalized to vehicle-treated controls.

[5] = target: murine USP18/human STAT2 interaction (Mus musculus, UniProt Q9WTV6); experiment: NanoBRET assay, mUSP18/STAT2 interaction in HEK293T cells; details: highest compound concentration (10 µM)
Sequence of murine USP18/human STAT2 interaction (P52630 whole entry partner, one chain of several): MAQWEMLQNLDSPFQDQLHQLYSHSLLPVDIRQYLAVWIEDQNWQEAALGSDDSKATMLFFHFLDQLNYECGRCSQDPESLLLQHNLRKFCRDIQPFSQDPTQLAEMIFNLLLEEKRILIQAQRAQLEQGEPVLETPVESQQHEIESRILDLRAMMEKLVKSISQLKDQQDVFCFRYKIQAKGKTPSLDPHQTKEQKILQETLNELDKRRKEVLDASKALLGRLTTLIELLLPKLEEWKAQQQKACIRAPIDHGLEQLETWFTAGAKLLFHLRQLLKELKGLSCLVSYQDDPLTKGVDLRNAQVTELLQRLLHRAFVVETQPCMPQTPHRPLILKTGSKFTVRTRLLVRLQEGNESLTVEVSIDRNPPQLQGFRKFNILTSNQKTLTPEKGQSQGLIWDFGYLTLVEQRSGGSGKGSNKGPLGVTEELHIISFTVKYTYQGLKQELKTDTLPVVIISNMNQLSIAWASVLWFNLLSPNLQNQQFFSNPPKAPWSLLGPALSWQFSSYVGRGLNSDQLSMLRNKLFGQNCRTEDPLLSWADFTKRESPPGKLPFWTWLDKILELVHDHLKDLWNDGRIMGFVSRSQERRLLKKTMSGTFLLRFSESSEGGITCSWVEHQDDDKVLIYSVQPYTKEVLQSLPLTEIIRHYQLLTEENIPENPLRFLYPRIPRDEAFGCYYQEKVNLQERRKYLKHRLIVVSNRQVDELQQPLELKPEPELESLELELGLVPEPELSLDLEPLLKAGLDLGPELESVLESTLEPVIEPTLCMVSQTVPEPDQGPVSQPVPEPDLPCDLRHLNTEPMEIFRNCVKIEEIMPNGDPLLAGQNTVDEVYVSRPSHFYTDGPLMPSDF

[6] = target: T5, human USP18/STAT2 interaction (Homo sapiens, UniProt Q9UMW8); experiment: NanoBRET assay, hUSP18/STAT2 interaction in HEK293T cells
T5 sequence (Q9UMW8 1-372): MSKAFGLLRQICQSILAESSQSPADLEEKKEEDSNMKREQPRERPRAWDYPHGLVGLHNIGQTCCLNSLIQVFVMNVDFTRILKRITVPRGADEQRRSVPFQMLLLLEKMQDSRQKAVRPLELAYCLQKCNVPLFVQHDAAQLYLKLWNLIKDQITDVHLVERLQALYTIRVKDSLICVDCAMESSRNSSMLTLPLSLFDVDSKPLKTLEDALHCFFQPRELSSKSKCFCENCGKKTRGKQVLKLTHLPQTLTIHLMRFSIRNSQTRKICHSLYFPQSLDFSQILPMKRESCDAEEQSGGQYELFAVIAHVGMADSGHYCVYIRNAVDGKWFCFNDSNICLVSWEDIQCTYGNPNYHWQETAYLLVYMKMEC

[7] = pure (re-synthesized) compound, mean ± SD n = 3

SMILES	IC50 (mUSP18 [1]; [7])	inhibition of all other enzymes tested (12 Ub(‐like) proteases)	IC50 (mUSP18 [1]; after 30 min incubation, purified compound, ISG15CT-Rho-morpholine substrate)	reduction in potency on mUSP18 versus stereoisomer BB07CA902 (mUSP18 [1]; ratio of IC50 values)	accumulation of ISGylation [2]	IC50 in-cell mUSP18/ISG15 interaction (mUSP18/ISG15 interaction; NanoBRET, HEK293T cells, 0.01–10 µM)	IC50 (papain)	IC50 (human USP18)	inhibition of DUB panel comprising 41 recombinant DUBs [3]	inhibition of mUSP18 at DUB panel concentration (mUSP18 [4])	cell viability (HEK293T cells)	IC50 (mUSP18/ISG15 interaction)	decrease in BRET signal, mUSP18/STAT2 interaction [5]	inhibition of hUSP18/STAT2 interaction [6]
Cc1cc(C(=O)N[C@H]2C[C@@H]3CN(C#N)C[C@@H]3C2)ccc1Br [BB07CA28]	95 ± 3.7 nM	negligible inhibition												
Cc1cc(C(=O)N[C@@H]2C[C@@H]3CN(C#N)C[C@@H]3C2)ccc1C(C)C [BB06CA902]			11000 ± 830 nM	> 300 fold	not increased	did not show any inhibition								
Cc1cc(C(=O)N[C@H]2C[C@@H]3CN(C#N)C[C@@H]3C2)ccc1C(C)C [BB07CA902]	35 nM						27000 nM	1200 nM	none of these DUBs was inhibited	near complete inhibition	not toxic	2000 nM	20%	did not observe any inhibition
